Experimental findings from the supplement of paper PMC10126150 are described below.

The data set concerns ATP. In words: switch fluorescence ratio, 500 uM ATP over buffer (Cy3 cluster intensity, sum of 5 cycles each) (fold (ratio)); higher = stronger signal-on switching upon ATP binding; sequences stand for … in TCGTCGGCAGCGTCAGATGTGTATAAGAGACAGTTTTTTTTTTTTTTTTTTTTTTTTT…TC. As to conditions: aptamer strand: ATP DNA aptamer (quencher-CACCTGGGGGAGTATTGCGGAGGAAGG + anchor), 100 nM annealed; ATP concentration: 500 uM; one replicate. A digest of the protocol: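 Clusters carrying Cy3-labelled switching strands on a modified Illumina MiSeq flow-cell were annealed to 100 nM quencher-labelled ATP aptamer and imaged in selection buffer. They were imaged again after 15 min with 500 uM ATP at 22 °C, over five buffer/ATP cycles with NaOH stripping and re-annealing in between. For each cluster, the fluorescence ratio is the summed Cy3 intensity of the target cycles divided by that of the buffer cycles, averaged per switch-domain sequence. Clusters outside 100-1000 RFU were left out.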

Sequences with one replicate were seen in a single cluster, so their values are uncertain.
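Also: ATP exposure 15 min at 22 °C before imaging.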

With TACAGAGGTA, the switch fluorescence ratio was found to be 1.01. GGGTGCTTGC: the switch fluorescence ratio was 0.989. For AATACGTTCG, the switch fluorescence ratio came to 1.02. On to TCGCTGTCTA, for which the switch fluorescence ratio is 0.998. Regarding GAGGTTCAGC, the switch fluorescence ratio is 0.908.

With TTGTAGTAAG, the switch fluorescence ratio turned out to be 1. As for GGTAGTCCCT, the switch fluorescence ratio was determined as 1.

As to ATACAATTCA, the switch fluorescence ratio turned out to be 0.989. Consider TGCGAGCGAA, for which the switch fluorescence ratio is 0.983. With CTATTCGTTC, the switch fluorescence ratio is 0.986.

TTTCGTACTA: the switch fluorescence ratio is 0.996.

For CATAGTACAA, the switch fluorescence ratio stood at 1.06.

For the sequence TCCTGAAGCC, the switch fluorescence ratio was 1.03. For TCCTGTTACG, the switch fluorescence ratio came to 1.01. For GATCAGGGAG, the switch fluorescence ratio is 1.03. Take GGTTTAACAT: the switch fluorescence ratio was 0.992.

Consider AATTCTCGTC, for which the switch fluorescence ratio was found to be 1.01. Next, GTGAGTACTA: 1. Regarding CTCCAATCCC, the switch fluorescence ratio was 1.09. Next, TGAGAGATAG: 0.986; CACACTACTG: 1.24. Consider TTCCTTTGTG, for which the switch fluorescence ratio amounted to 1.01.

For the sequence TGAAATTGTC, the switch fluorescence ratio was found to be 1.04.

For ATAATTATGG, the switch fluorescence ratio is 1. Next, GACGTGTGTA: 1.06; TAAGATAAGG: 0.991. For the sequence GTAATCAAGG, the switch fluorescence ratio is 0.956. For TTCATGTCCT, the switch fluorescence ratio was determined as 1.04. Consider TGCGCATGAA, for which the switch fluorescence ratio worked out at 1.02. Next, GGGTAACGTC: 0.967; GATAGAATTC: 0.99. Take GGGCGATGGA: the switch fluorescence ratio is 1.01. Next, TCTGCAATCA: 4.08; TGCTTTTACA: 1.04; ACCCGTGAGA: 1.03.

In the case of TGTACGGAAA, the switch fluorescence ratio is 0.962. For GGCAAGTGTA, the switch fluorescence ratio stood at 1.01. Consider TTTGTCAAAT, for which the switch fluorescence ratio was 1.04. Take TTTTGCAGGC: the switch fluorescence ratio came out at 1.15.

As to AAAAATGGTA, the switch fluorescence ratio is 1.01. Regarding ATAAATGTTG, the switch fluorescence ratio came out at 1. TCGCCTTGGC: the switch fluorescence ratio was 0.955. Next, GAGATCACGT: 0.976; TCGCCATTTA: 0.986; GCAGTAATGC: 1.79. As for CTTAGAGGCA, the switch fluorescence ratio was 0.961. Take TTGAAGACGA: the switch fluorescence ratio stood at 0.964. For AAGGTTTGA, the switch fluorescence ratio came to 1.03.

As for CATTGGTTCT, the switch fluorescence ratio amounted to 0.978. Next, CGCTCCGGTG: 1.04; GCTCACGGGG: 1.03. Next, GTACGTGGCT: 0.987. On to GATAAGTACG, for which the switch fluorescence ratio is 1.23. For the sequence TAAACGCCAG, the switch fluorescence ratio was 1.03. Take TGTCTCGGCA: the switch fluorescence ratio was found to be 1.06. On to GGTGATGGAA, for which the switch fluorescence ratio was 1.06. In the case of TCACGGCTGT, the switch fluorescence ratio was 1.03.

TAAAATTC: the switch fluorescence ratio amounted to 1. AACCGGAGGT: the switch fluorescence ratio is 0.982.

With TCCGACACAG, the switch fluorescence ratio was found to be 1.52. Regarding TGACCCGATT, the switch fluorescence ratio stood at 0.955. On to CTGATTAGTC, for which the switch fluorescence ratio came out at 1. With ATTGTGAGTG, the switch fluorescence ratio worked out at 1.02. Consider GCGACTGATG, for which the switch fluorescence ratio is 0.986.

As to TATACCTGTG, the switch fluorescence ratio is 0.979. CTGGAAATTC: the switch fluorescence ratio worked out at 1. Next, ACGGACTGTG: 1.05; ACTAGATCTC: 0.953.

As to GCAGATCGCT, the switch fluorescence ratio was 1.01. Consider CGCTGTGCCT, for which the switch fluorescence ratio is 0.962. Consider ACTTACCTT, for which the switch fluorescence ratio is 1.22. Turning to TTGGGGCCTT, the switch fluorescence ratio stood at 1.14. Next, TTGTGTGTCC: 0.99; GAGAGGGGTG: 1.03. For the sequence ACGTATTCTA, the switch fluorescence ratio is 1.09.

On to GGCGCATAAG, for which the switch fluorescence ratio is 1.06. As to TGTCAGTCGG, the switch fluorescence ratio is 1.05. Next, ATGTCAAGTA: 0.996; TTAGTGGTT: 1.01; TTAAGCTGGA: 1.01. As for ACGGAGTCCA, the switch fluorescence ratio stood at 0.965. On to ATGGTCATCA, for which the switch fluorescence ratio amounted to 0.987. TGTGACGGGT: the switch fluorescence ratio came to 1.02. Next, CCGTATCGAT: 1.04. For ATGTACTGCC, the switch fluorescence ratio amounted to 1.06. Next, GTGAGGTTGA: 1.03. With GATTATGAA, the switch fluorescence ratio is 0.988. Next, TAGGGATACG: 1.02.

With GCTTGAGGAC, the switch fluorescence ratio was 0.997.

On to TTACCGCGAT, for which the switch fluorescence ratio came to 2.9.

GTGATTAGAA: the switch fluorescence ratio stood at 1.03. Turning to GAGCTTGTGT, the switch fluorescence ratio came out at 0.998. As to CGAGATCGCG, the switch fluorescence ratio was determined as 0.967. Consider ACTGTGGTTT, for which the switch fluorescence ratio is 1.03. Consider TTACGGGTGA, for which the switch fluorescence ratio was found to be 1.02. For CCGGGTTTAA, the switch fluorescence ratio is 1.07.

As for CAAGATAAAG, the switch fluorescence ratio stood at 1.01. Next, AGGTTGTTCG: 1.01; AATGCTGGGA: 1.01; CGGTGGACCG: 0.977. Consider GGCGCGTAGT, for which the switch fluorescence ratio amounted to 1.26. Next, CACCAAATTT: 1.07; CCAATGCCTG: 1.12; AATCATTGG: 1.02. GGGTATAGAT: the switch fluorescence ratio turned out to be 1.01. Take CAACCTAATG: the switch fluorescence ratio was 0.993.

Consider TGTTTAAAGT, for which the switch fluorescence ratio is 0.992. With GCCATATCGG, the switch fluorescence ratio worked out at 0.959. For the sequence GTAAGGAATT, the switch fluorescence ratio amounted to 0.94.

Take TAGCACCGGG: the switch fluorescence ratio was 1.11. Consider AAAACGGGGG, for which the switch fluorescence ratio was 1.01.

Consider TCGAGAAGAG, for which the switch fluorescence ratio came to 1. Next, AAGGATGGCA: 1.01; GTGTGATCGA: 1.11; CAGTAACTAA: 1.01. Next, GAGTGTAATT: 1.01; ATGCTTAAGC: 1.03.

Take ACCTCACTCC: the switch fluorescence ratio was found to be 1.84. As for CCACGGACAT, the switch fluorescence ratio was 1.48. GTTAGTCAGC: the switch fluorescence ratio came out at 0.965. Consider AGGACGAGCT, for which the switch fluorescence ratio is 1.06. GTCGTACATA: the switch fluorescence ratio was 0.985.

For GCGCGACCGT, the switch fluorescence ratio came out at 1.02. Next, CCGGTGGCGC: 1.02. Next, GCAGGCTGCT: 0.981; CTTCCTTCTG: 1.3. Consider TTTGACTA, for which the switch fluorescence ratio stood at 1.01. In the case of CTGTTAGAAA, the switch fluorescence ratio was 0.989. For the sequence CGAAGGCTAC, the switch fluorescence ratio was 6.26. Next, CTAGGGGCGG: 0.984; ATCCGGAAGG: 1.75. In the case of CGTAGCTGTT, the switch fluorescence ratio stood at 1.04. Regarding TATCATTCAG, the switch fluorescence ratio is 1.07. For TGCCAGCCGT, the switch fluorescence ratio was 1.02.

On to ATATTGTCGG, for which the switch fluorescence ratio was 0.967. Next, GAAATAGCG: 0.945; CTTGCCGCAG: 2.44. As for GGTAGCCGAC, the switch fluorescence ratio is 1.
